Read counts are not given, so values of variants with three or more changes are uncertain.

B1: LINE1-mini (parent)
chain: GGCAGAGCUCAACACAGCGUGGCAAAGUGGCUGUGGCUAGACUGCC

Variants of B1 are the subject of this data set. In words: self-cleavage, relative activity (ratio to wild type); higher = more cleavage; in vitro, sequencing; the parent is a self-cleaving ribozyme.
For the variant GGCACAGCUCAACACAGCGUAGCAAAGUGUCUGUGGCUAGAUUGCA [G5C G21A G30U C42U C46A], the self-cleavage was 0.07. With GGCACAGCUCAACACAGCGUGGCAAAGUCGCUGUGGCUAGACCGCC [G5C G29C U43C], the self-cleavage is 0.02. The value for GGCACAGCUCAACACAGCCUCGCAACGUGGCUGUGGCUAGACUGCC [G5C G19C G21C A26C] was 0; that for GGCACAGCUCAACACAGCGUGGCAAAUUGGAUGUGUCUAGACUGCC [G5C G27U C31A G36U] was 0.01; that for GGCACAGCUCAACACAGCGUGGCAAAGUUGCUGUGGCUAGACUGUU [G5C G29U C45U C46U] was 0.14. In the case of GGCACAGCUCAACACAGCGUGUCAAAGUGUCUGUGGCUGGACUGCC [G5C G22U G30U A39G], the self-cleavage was 0.05.

Regarding GGCACAGCUCAACACAGCGUGUCUAAGUGGCUGUGGCUAGACUGCC [G5C G22U A24U], the self-cleavage was 0.03.

For the variant GGCACAGCUCAACACAGCGUUGCAAAGUGGCUGUGGCUAGAGUGCC [G5C G21U C42G], the self-cleavage came out at 0.27. The value for GGCACAGCUCAACACAAAGUGGCAAAGUGGCUUUGGCUAGACUGCC [G5C G17A C18A G33U] was 0.03. Turning to GGCACAGCUCAACACAACGUGGCAUAGUGGCUGUGGCUAGACUGCC [G5C G17A A25U], the self-cleavage worked out at 0.02.

On to GGCACAGCUCAACACACCGCGGCAUAGUGGCUGUUGCUAGACUGCC [G5C G17C U20C A25U G35U], for which the self-cleavage worked out at 0.14. As for GGCACAGCUCAACACAGCGUGGCAAAAUGCCUUUGGCUAGACUGCC [G5C G27A G30C G33U], the self-cleavage was determined as 0.06. As for GGCACAACUCAACACAGCGUGGCAAAGUGGCUGUGGCUACACUGCU [G5C G7A G40C C46U], the self-cleavage worked out at 0.16. The value for GGCACAGCUCAACACAGCGUGGCAAAGUAGCUGUAGAUAGACUGCC [G5C G29A G35A C37A] was 0.11; that for GGCACAGCUCAACACAGCGUGGCAAAGUGCCUUUGGCUAUACUGCC [G5C G30C G33U G40U] was 0.04.

Turning to GGCACACCUCAACACAGCGUGGCAAAGUGGCUGUGGAUGGACUGCU [G5C G7C C37A A39G C46U], the self-cleavage was 0.01. The value for GGCACAGCUCAACACAGCGUGGCAAAGUGGCUGUGGCUAGACUCCA [G5C G44C C46A] was 0.14; that for GGCACAGCUCAACACAGCUUGGCAAAGUGGCUGUAGCUAGACUGCC [G5C G19U G35A] was 0.02. The value for GGCACAGCUCAACACAGCGUGGCAAAGUGGCUAUGGCUAGACAUCC [G5C G33A U43A G44U] was 0.05.

GGCACAGCUCAACACAUCGUGUAAAAGUGGCUGUGGCUAGACUGCA [G5C G17U G22U C23A C46A]: the self-cleavage turned out to be 0.03. With GGCACAUUUCAACGCAGCGUGGCAAAGUGGCUGUGGCUAGACUGCC [G5C G7U C8U A14G], the self-cleavage stood at 0.35.

Consider GGCACAGCUCAACACAGCAUGGCAAAGUGGCUGUGUCUAGACUGCC [G5C G19A G36U], for which the self-cleavage was 0.03. The value for GGCACAGCUCAACACAGCGUUGCAAAGUGGCUGUGGUUAGACUGCA [G5C G21U C37U C46A] was 0.02. Then GGCACACCUCAACACAGCGUGGCAAUGUGGCUGUGGCUAGACUGGC [G5C G7C A26U C45G], with 0.11.

As for GGCACAGCUCAACACAGCGUAGCAAAUUGGCUGUGGCUAGACUGCC [G5C G21A G27U], the self-cleavage came to 0.07. As to GGCACAGCUCAACACAUCGUGGCAAAGUGGCUGGGGCGAGACUGCC [G5C G17U U34G U38G], the self-cleavage is 0.01. Then GGCACAACUCAACACAGCGUGGGAAAGUGGCUGUGGCUAGACUGCC [G5C G7A C23G], with 0.09. For the variant GGCACAGCUCAACACAGCUUGGCUAAGUGGCUGCGGCUAGACUGCC [G5C G19U A24U U34C], the self-cleavage amounted to 0.01.

Turning to GGCACAGCUCAACACAGCGUGGCAAAGUGAGUGUGGCUAGACUGCC [G5C G30A C31G], the self-cleavage stood at 0.02.

Regarding GGCACAGCUCAACACAGCGUAGCAAAGUGGCUGUGGCUAAACUGCC [G5C G21A G40A], the self-cleavage came to 0.1.

As to GGCACAGCUCAACACAGCUUUGCAAAAUGGCUGUGGCUAGACAGCC [G5C G19U G21U G27A U43A], the self-cleavage worked out at 0.01. As for GGCACACCUCAACACAGCGUAGCAAAGUGGCUGUGGCUAGACUGCC [G5C G7C G21A], the self-cleavage amounted to 0.21. Then GGCACAGCUCAACACAGCGUGGCAAAUUGGCUGUGGUUAAAUUGCC [G5C G27U C37U G40A C42U], with 0.01; and GGCACAGCUCAACACAUCGCGGCAAAGUGGCUGUGGCGAGACUGCC [G5C G17U U20C U38G], with 0.02. Then GGCACAACUCAACACAGCGUGGCAAAUUGGCUGUGGAUAGACUGCC [G5C G7A G27U C37A], with 0.17. The value for GGCACAGCUCAACACAGCGUGUCAAAGUGGCUUUGGCUAGACUGCC [G5C G22U G33U] was 0.03; that for GGCACAGCUCAACACAGCGUGUCAAAGUGGCUCUGGCUAGACUGCC [G5C G22U G33C] was 0.06. Take GGCACAGCUCAACACAGCGUGGCAAACUGGCUGUGGCUAGCCUGCC [G5C G27C A41C]: the self-cleavage stood at 0.05. In the case of GGCACAGCUCAACACAACGUGGCAAAGUGGCUGUGGAUAGACUGCC [G5C G17A C37A], the self-cleavage was found to be 0.02. The value for GGCACAGCUCAACACAGCGUGGCAAAGUGCCUGUGGCUAGACUGCU [G5C G30C C46U] was 0.02.

Regarding GGCACAGCUCAACACACCGUGGCAAAGUGUCAGUGGCUAGACUGCC [G5C G17C G30U U32A], the self-cleavage turned out to be 0.03. As to GGCACAGCUCAACACAGCGUGGCAAAUUGGCCGUGGCUAGACUGCC [G5C G27U U32C], the self-cleavage turned out to be 0.02. Then GGCACAUCUCAACACAGCGUGGCAAAGUGGCUUUGGCUAGACUGUC [G5C G7U G33U C45U], with 0.17; and GGCACAGCUCAACACAGCGUGGCAAAGUGCCUCUGGCUAGACUGCC [G5C G30C G33C], with 0.03. Then GGCACAGCUCAACACAACGUGGCAAAGUGGCUUUGGCUAGACUGCC [G5C G17A G33U], with 0.03. Then GGCACAGCUCAACACAGCGUGACAAAUUCGCUGUGGAUAGUCUGCC [G5C G22A G27U G29C C37A A41U], with 0.1.

In the case of GGCACAGCACAACACAGCGUGGCAAAGUGGCUGUCGCGAGACUGCC [G5C U9A G35C U38G], the self-cleavage was 0.08. Then GGCACAGCUCAACACAGCGUGGCAAAGUUGCUGUGGCUCGACUGCC [G5C G29U A39C], with 0.05; and GGCACAUCUCAACACAGCGUGUCAAAGAGGCUGUGGCUAAACUGCC [G5C G7U G22U U28A G40A], with 0.3. Then GGCACAGCACAACACAGUGUGCCAAUGUGGCAGUGGCUAGACUGCC [G5C U9A C18U G22C A26U U32A], with 0.01; and GGCACAGCUCAACACAUCGUUGCAAAGUGGCUGUGGCUAGACUGCC [G5C G17U G21U], with 0.04; and GGCACAGCUCAACACAGCGUGGCAAAGUGGCUUUGGCUACACUGCA [G5C G33U G40C C46A], with 0.04. On to GGCACAACUCAACAAAGCGUGGAAAAGUGGCUCUGGCGAGACUGCG [G5C G7A C15A C23A G33C U38G C46G], for which the self-cleavage worked out at 0.05.

Take GGCACAGCUCAACACAGCGUUGCAAAGUGGCUGUGCCUAGACCGCC [G5C G21U G36C U43C]: the self-cleavage is 0. For GGCACAGCUCAACACACCGUGUCAAAGUGGCGGAGGCUAGACGGAC [G5C G17C G22U U32G U34A U43G C45A], the self-cleavage was determined as 0.09. For the variant GGCACAGCUCAACACAGCGUGGCAAAGUGGCUAUGGAUAGGCUGCC [G5C G33A C37A A41G], the self-cleavage was found to be 0.02.

For the origin of these results see the RNAGym collection of RNA variant scans (doi:10.7554/elife.90254).
